This is one part of the list. Single values of this set are uncertain. Values with irradiation are relative to irradiated vehicle.
Assays:
A549-Dual [1] = assay: NF-kB reporter (SEAP) activity, viability-corrected, relative to vehicle (fold change vs vehicle); higher = more activation of STING-IRF / NF-kB immune response reporter
A549-Dual [2] = assay: ISRE reporter (Lucia luciferase) activity, viability-corrected, relative to vehicle (fold change vs vehicle); higher = more activation of STING-IRF / NF-kB immune response reporter
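For NF-kB reporter (SEAP) activity, viability-corrected, relative to vehicle in this document: viability correction based on the alamar blue assay, with concentrations leaving 10% survival or less dropped.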

SMILES | NF-kB reporter (A549-Dual [1]; 0.1 µM, irradiation: 8 Gy/4 fr) | NF-kB reporter (A549-Dual [1]; 0.1 µM, irradiation: none) | NF-kB reporter (A549-Dual [1]; 0.3 µM, irradiation: 8 Gy/4 fr) | NF-kB reporter (A549-Dual [1]; 0.3 µM, irradiation: none) | NF-kB reporter (A549-Dual [1]; 1 µM, irradiation: 8 Gy/4 fr) | NF-kB reporter (A549-Dual [1]; 1 µM, irradiation: none) | NF-kB reporter (A549-Dual [1]; 3 µM, irradiation: 8 Gy/4 fr) | NF-kB reporter (A549-Dual [1]; 3 µM, irradiation: none) | NF-kB reporter (A549-Dual [1]; 10 µM, irradiation: 8 Gy/4 fr) | NF-kB reporter (A549-Dual [1]; 10 µM, irradiation: none) | ISRE reporter (A549-Dual [2]; 0.1 µM, irradiation: 8 Gy/4 fr) | ISRE reporter (A549-Dual [2]; 0.1 µM, irradiation: none) | ISRE reporter (A549-Dual [2]; 0.3 µM, irradiation: 8 Gy/4 fr) | ISRE reporter (A549-Dual [2]; 0.3 µM, irradiation: none) | ISRE reporter (A549-Dual [2]; 1 µM, irradiation: 8 Gy/4 fr) | ISRE reporter (A549-Dual [2]; 1 µM, irradiation: none) | ISRE reporter (A549-Dual [2]; 3 µM, irradiation: 8 Gy/4 fr) | ISRE reporter (A549-Dual [2]; 3 µM, irradiation: none) | ISRE reporter (A549-Dual [2]; 10 µM, irradiation: 8 Gy/4 fr) | ISRE reporter (A549-Dual [2]; 10 µM, irradiation: none)
COC(=O)NC(C(=O)N1CCCC1c1ncc(-c2ccc(-c3ccc(-c4cnc(C5CCCN5C(=O)C(NC(=O)OC)C(C)C)[nH]4)cc3)cc2)[nH]1)C(C)C (stereo not given) | 0.872 | 0.983 | 0.902 | 1.1 | 0.757 | 1.02 | 0.939 | 0.808 | 1.07 | 0.998 | 0.919 | 0.868 | 0.93 | 1.15 | 0.829 | 1.16 | 1.14 | 0.929 | 1.16 | 2.39
CC(C(=O)O)c1ccc2c(c1)[nH]c1ccc(Cl)cc12 (stereo not given) [Carprofen] | 1.11 | 1.09 | 1.12 | 0.747 | 1.19 | 0.79 | 1.12 | 0.84 | 0.738 | 0.962 | 0.996 | 0.676 | 0.943 | 0.815 | 0.726 | 0.741 | 0.709 | 0.791 | 0.755 | 0.891
CC(=O)Nc1cccc(-n2c(=O)n(C3CC3)c(=O)c3c(Nc4ccc(I)cc4F)n(C)c(=O)c(C)c32)c1 | 1.31 | 1.88 | 1.55 | 3.22 | 1.61 | 7.33 | 5.12 | 3.68 | 3.78 | 6.21 | 0.378 | 0.787 | 0.0964 | 0.314 | 0.124 | 0.426 | 0.123 | 0.233 | 0.173 | 0.43
COc1cc(Nc2ncc(F)c(Nc3ccc4c(n3)N(COP(=O)([O-])[O-])C(=O)C(C)(C)O4)n2)cc(OC)c1OC.[Na+].[Na+] [R788 (Fostamatinib) Disodium] | 1.5 | 0.97 | 0.982 | 0.991 | 0.87 | 0.9 | 0.838 | 1.06 | 0.981 | 1.65 | 0.976 | 1.17 | 1.02 | 0.846 | 0.945 | 0.805 | 0.902 | 0.231 | 0.0637 | 0.169
CC(=O)Nc1ccc(CC(=O)O)cc1 [Actarit] | 1.21 | 2.38 | 1.62 | 2 | 1.59 | 1.44 | 2.35 | 1.41 | 1.58 | 1.24 | 1.11 | 1.97 | 1.33 | 1.55 | 1.55 | 1.24 | 1.27 | 1.25 | 1.44 | 0.992
CCOc1ccc(NC(C)=O)cc1 [Phenacetin] | 0.84 | 1.11 | 0.821 | 1.18 | 1.24 | 0.888 | 1.35 | 0.944 | 0.878 | 0.896 | 1.05 | 0.868 | 0.832 | 0.859 | 0.85 | 0.823 | 0.898 | 1.02 | 0.881 | 0.871
CS(=O)(=O)c1ccc(C(=O)Nc2ccc(Cl)c(-c3ccccn3)c2)c(Cl)c1 [Vismodegib (GDC-0449)] | 1.18 | 1.04 | 1.34 | 1.17 | 1.2 | 1.29 | 1.24 | 0.792 | 0.976 | 0.927 | 1.01 | 0.93 | 1.51 | 0.951 | 1.1 | 0.991 | 1.12 | 0.748 | 0.924 | 0.958
CC(=O)[N-]S(=O)(=O)c1ccc(N)cc1.[Na+] [Sulfacetamide Sodium] | 1.01 | 1.28 | 1.03 | 1.14 | 1.05 | 0.949 | 1.47 | 0.988 | 0.742 | 0.438 | 1.03 | 1.31 | 1.01 | 1.23 | 1.03 | 0.979 | 0.897 | 0.953 | 0.791 | 0.696
S=c1nc[nH]c2nc[nH]c12 [Mercaptopurine (6-MP)] | 0.924 | 0.999 | 0.893 | 0.914 | 0.774 | 0.85 | 0.781 | 0.838 | 0.832 | 0.943 | 1.09 | 0.999 | 1.06 | 0.813 | 0.735 | 0.774 | 0.69 | 0.719 | 0.677 | 0.743
O=C(O)Cc1ccccc1Nc1c(Cl)cccc1Cl [Diclofenac acid] | 0.73 | 0.725 | 0.83 | 0.664 | 0.977 | 0.83 | 1.22 | 0.722 | 0.796 | 0.554 | 0.725 | 0.765 | 0.811 | 0.727 | 0.751 | 0.887 | 0.967 | 0.815 | 0.807 | 0.671
O=CC(O)C(O)C(O)C(O)COC1OC(CO)C(O)C(O)C1O (stereo not given) [Melibiose] | 1.18 | 1.48 | 1.17 | 1.37 | 1.45 | 0.986 | 1.73 | 1.1 | 1.02 | 0.953 | 1.15 | 1.47 | 1.07 | 1.39 | 1.32 | 1.1 | 1.11 | 1.25 | 1.25 | 0.687
NC(=O)c1cccc2cn(-c3ccc(C4CCCNC4)cc3)nc12 (stereo not given) [Niraparib (MK-4827)] | 1.03 | 0.958 | 0.95 | 0.957 | 0.982 | 1.03 | 0.87 | 1.41 | 0.975 | 1.28 | 1.05 | 0.993 | 0.975 | 1.32 | 1.14 | 1.49 | 1.04 | 3.07 | 0.948 | 4.11
Cc1cc(S(=O)(=O)[O-])c2c(C)ccc(C(C)C)cc1-2.[Na+] [Sodium gualenate] | 1.02 | 1.08 | 1.21 | 1.01 | 1.09 | 0.698 | 1.14 | 0.935 | 0.601 | 0.413 | 1 | 1.12 | 1.06 | 1.08 | 0.952 | 0.687 | 0.724 | 0.964 | 0.698 | 0.804
NC(CO)(CO)CO [Trometamol] | 1.33 | 0.823 | 1.03 | 0.639 | 1.13 | 0.96 | 0.81 | 0.929 | 0.962 | 0.974 | 1.02 | 0.923 | 0.933 | 0.753 | 0.938 | 0.807 | 0.9 | 0.906 | 0.914 | 0.65
Cc1c(C(=O)Nc2ccc(N3CC(C)OC(C)C3)nc2)cccc1-c1ccc(OC(F)(F)F)cc1 (stereo not given) [Sonidegib (Erismodegib, NVP-LDE225)] | 1.07 | 1.05 | 1.11 | 1.02 | 1.02 | 1.22 | 0.885 | 1.22 | 0.845 | 1.19 | 1.1 | 0.997 | 0.96 | 0.974 | 1.06 | 0.992 | 0.814 | 0.862 | 0.716 | 1.06
CCOCC(O)COc1ccc(NC(=O)CC[S+](C)C)cc1.Cc1ccc(S(=O)(=O)[O-])cc1 (stereo not given) [Suplatast Tosylate] | 1.15 | 1.74 | 1.25 | 1.59 | 1.3 | 1.31 | 1.86 | 1.36 | 1.03 | 1.61 | 1.14 | 1.49 | 0.986 | 1.52 | 0.974 | 1.3 | 0.83 | 0.908 | 0.23 | 0.51
Nc1ncn(C2OC(CO)C(O)C2O)c(=O)n1 (stereo not given) [Azacitidine] | 0.95 | 1.27 | 1.02 | 1.12 | 0.843 | 1.06 | 0.513 | 0.647 | 0.505 | 0.514 | 0.927 | 1.4 | 1.21 | 1.67 | 0.865 | 2.07 | 0.351 | 1.16 | 0.323 | 0.496
Cn1cc(C2=C(c3cccc(N)c3)C(=O)NC2=O)c2ccccc21 | 0.979 | 1.36 | 0.783 | 1.71 | 0.949 | 2.15 | 0.595 | 1.27 | 0.583 | 1.08 | 1.13 | 1.13 | 0.924 | 1.29 | 0.916 | 1.29 | 0.181 | 0.497 | 0.131 | 0.494
COc1ccc2c(c1)c(CC(=O)OCC(=O)O)c(C)n2C(=O)c1ccc(Cl)cc1 [Acemetacin] | 0.771 | 0.813 | 0.595 | 0.938 | 0.869 | 0.825 | 0.72 | 0.93 | 0.712 | 0.904 | 0.796 | 0.687 | 0.57 | 0.709 | 0.549 | 0.826 | 0.661 | 0.92 | 0.676 | 0.921
COc1cc(CNC(=O)CCCC/C=C\C(C)C)ccc1O [Zucapsaicin] | 1.17 | 1.67 | 1.34 | 1.49 | 1.37 | 1.14 | 1.85 | 1.23 | 1 | 0.805 | 1.12 | 1.47 | 1.09 | 1.21 | 1.17 | 0.902 | 1.01 | 0.96 | 1.07 | 0.94
CC(C)(CO)c1cc2cc(NC(=O)C3(c4ccc5c(c4)OC(F)(F)O5)CC3)c(F)cc2n1CC(O)CO (stereo not given) [Tezacaftor?(VX-661)] | 0.957 | 1.27 | 0.913 | 0.907 | 0.965 | 0.945 | 0.981 | 0.935 | 0.949 | 0.932 | 1.02 | 1.3 | 1.06 | 0.935 | 0.97 | 1.22 | 1.2 | 0.902 | 1.09 | 1.11
O=NN(CCCl)C(=O)NCCCl [Carmustine] | 0.901 | 0.988 | 0.858 | 0.928 | 0.924 | 0.982 | 0.966 | 0.997 | 1.04 | 0.962 | 0.965 | 1.1 | 0.914 | 0.999 | 0.995 | 1.05 | 1.19 | 0.833 | 1.06 | 0.939
CCc1cccc2c3c([nH]c12)C(CC)(CC(=O)O)OCC3 (stereo not given) [Etodolac] | 0.86 | 1.02 | 0.944 | 1.19 | 1.21 | 0.896 | 1.32 | 0.914 | 0.888 | 0.963 | 0.849 | 0.813 | 0.778 | 0.773 | 0.787 | 0.867 | 0.773 | 0.865 | 0.782 | 0.894
COc1cc2nccc(Oc3ccc(NC(=O)NC4CC4)c(Cl)c3)c2cc1C(N)=O [Lenvatinib (E7080)] | 1.34 | 0.924 | 1.39 | 1.01 | 1.17 | 0.832 | 1.11 | 0.743 | 0.683 | 0.708 | 1.03 | 0.821 | 1.24 | 0.87 | 0.869 | 0.618 | 0.637 | 0.406 | 0.472 | 0.374

Reference: the supplement of paper PMC9174493
